Measured values as given in PubChem BioAssay AID686978 (National Center for Advancing Translational Sciences (NCATS), 2013).
In all, about 420,000 compounds went through this assay and about 64,000 (15%) were called active. Inconclusive results, whose numbers are uncertain, are shown with a selection of clear calls. The call rests on the fitted dose curve; in most records, active means well fitted inhibition curve with a large enough effect; inconclusive means small, poorly fitted or top-dose-only effect; inactive means flat fitted curve, though single readings scatter. No potency is given beside an inconclusive call; the fits are too rough.

assay: qHTS for Inhibitors of human tyrosyl-DNA phosphodiesterase 1 (TDP1): qHTS in cells in absence of CPT; settings: DT40 Tdp1-/- hTDP1 cells, no CPT, ATP luminescence, 48 h; activity change, negative = growth inhibition: at 46.2 µM (top of the series); further: nearly all actives have a fitted effect of over 55% in size
Method in brief: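 DT40 Tdp1-/-;hTDP1 cells, no CPT (DMSO vehicle only), 400 cells/well; compounds pin-transferred; ≥48 hr, 37 °C; CellTiter-Glo 30 min RT dark, luminescence read.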
On the % scale 0 is the no-effect control and ±100 the full control effect; potency means the concentration at half of the fitted maximal effect; tags describe the fitted curve by direction and shape.

Compound | activity change, negative = growth inhibition | Potency
CC(C)N1CCN(Cc2cccc(-n3cccn3)c2)CC1CCO (configuration not stated) | inactive: -9.38% | –
CC(=O)Nc1ccc(S(=O)(=O)N2CCN(C(=O)Cc3ccccc3)CC2)cc1 | – | inconclusive [inhibitor, partial curve]
O=C(NNC(=O)c1ccc(Br)s1)c1cccc(S(=O)(=O)N2CCCC2)c1 | – | inconclusive [inhibitor, single point]
Cc1noc(/C=C/c2ccc(-c3ccccc3Cl)o2)c1[N+](=O)[O-] | – | inconclusive [inhibitor, single point]
COc1ccc(CN(C)CC(=O)Nc2ccccc2C(=O)NC2CC2)cc1 | – | inconclusive [inhibitor, single point]
Cc1cc(Cl)ccc1C(=O)C1CCCN(C(=O)c2cnsn2)C1 (configuration not stated) | – | inconclusive [inhibitor, single point]
CC1(C)[C@@H](O)CC[C@]2(C)C3C(O)C=C4[C@H]5C[C@@](C)(CO)CC[C@]5(C)CC[C@]4(C)[C@]3(C)CC[C@@H]12 (some centres not stated) | inactive: -17.1% | –
COc1ccc(NC(=O)Nc2c[nH]c(=O)[nH]c2=O)cc1 | inactive: 4.68% | –
Cc1nn(-c2nc(-c3ccco3)cc(C(F)(F)F)n2)c(C)c1Br | – | inconclusive [inhibitor, single point]
CC(C)C(=O)Nc1c(-c2ccc(Cl)cc2)c(=O)c2ccccc2n1C | inactive: 11.7% | –
CC(=O)Nc1ccc(NC(=O)CCN2C(=O)C3CC=CCC3C2=O)cc1 (configuration not stated) | inactive: 8.23% | –
Cc1c(C=C(C#N)c2ccc([N+](=O)[O-])cc2)c(=O)n(-c2ccccc2)n1C | – | inconclusive [inhibitor, single point]
CC1(C)Cc2c(sc(NC(=O)Cc3ccccc3)c2C#N)C(C)(C)N1 | – | inconclusive [inhibitor, single point]
COc1cc(/C=C2\SC(=S)N(Nc3ccccc3)C2=O)ccc1O | – | inconclusive [inhibitor, single point]
COCCn1c(SCC(=O)Nc2cccc(OC)c2)nc2c(oc3ccccc32)c1=O | – | active: 7.31 µM
COc1cc(OC)cc(-c2c(C#Cc3ccsc3)c3cc(-c4cc(OC)c(OC)c(OC)c4)ccc3n2C)c1 | inactive: -21.2% | –
COc1cc(/C=C/C(=O)OCC(=O)N2CCOCC2)ccc1OCC#N | inactive: -18.8% | –
Cc1nc(SCC(=O)N2CCN(C(=O)c3cccs3)CC2)c2c(C)c(C)sc2n1 | – | active: 16.4 µM
O=C(NC(c1ccccc1)c1cnccn1)C1CCN(Cc2ccc(Cl)c(Cl)c2)CC1 (configuration not stated) | – | active: 13 µM
O=C(Nc1ccc(-c2ccc3nncn3n2)cc1)C1CCCC1 | – | inconclusive [inhibitor, single point]
Cc1nc(SCC(=O)NC(C)(C)C)c2c(-c3cccs3)csc2n1 | – | inconclusive [inhibitor, single point]
Cc1c(N2C(=O)/C(=C3\C(=O)N(CC(=O)O)c4ccccc43)SC2=S)c(=O)n(-c2ccccc2)n1C | – | inconclusive [inhibitor, single point]
COc1ccc(Nc2nc3c(C)cccn3c(=O)c2C=NCc2ccccc2)cc1 | – | inconclusive [inhibitor, single point]
COC(=O)c1cccc(Nc2c(-c3ccc(OC)cc3)nc3nc[nH]n23)c1 | – | inconclusive [inhibitor, single point]

Compound | activity change, negative = growth inhibition | Potency
COc1ccc(CCNC(=O)c2cc3sc(Cl)cc3n2C)cc1OC | – | inconclusive [inhibitor, single point]
O=C(/C=C/c1ccc(Cl)cc1)NC1CC2CCC1C2 (configuration not stated) | – | inconclusive [inhibitor, partial curve]
CCC(=O)N(Cc1cc2ccc(C)cc2[nH]c1=O)c1ccccc1OC | – | inconclusive [inhibitor, single point]
C/C(=N\NC(=O)CCc1c[nH]c2ccccc12)c1ccc([N+](=O)[O-])cc1 | – | inconclusive [inhibitor, single point]
CC(C)NC(=O)C1(C)CCN1C(=O)C1(c2ccccc2)CCCC1 (configuration not stated) | – | inconclusive [inhibitor, single point]
Cc1ccc(C)c(N2CCN(C(=O)C(Cc3ccccc3)n3cccc3)CC2)c1 (configuration not stated) | – | active: 23.1 µM
S=c1[nH]ccn1-c1c(Cl)cccc1Cl | inactive: 1.74% | –
Cc1ccc(C)c(NC(=O)Cn2nnc(C(=O)NCCc3ccccc3)c2N)c1 | inactive: 1.66% | –
CCN(CC)c1ccc(NC(=O)c2cc3c(OC)cccc3[nH]2)cc1 | – | inconclusive [inhibitor, partial curve]
O=c1[nH]nc(-c2cc(-c3ccccc3)nc3ccccc23)o1 | – | inconclusive [inhibitor, single point]
O=C(Nc1ccc(F)cc1)C(CCc1ccccc1)N1CCN(C(=O)c2ccco2)CC1 (configuration not stated) | – | inconclusive [inhibitor, single point]
CC(=O)Nc1ccc(Sc2ccccc2C(=O)N2CCCC2)cn1 | inactive: -18.6% | –
CCOc1c(S(=O)(=O)N2CCCC2)ccc(Cl)c1Cl | inconclusive: -30.4% [inhibitor] | –
CC1=NOC(=O)/C1=C\c1ccc(-c2ccc(Br)cc2)o1 | – | active: 11.6 µM
Cc1ccc(CSCc2ccc(C(=O)NC3CC3)o2)cc1 | – | active: 23.1 µM
O=S1(=O)C=C(Sc2nc3ccccc3s2)c2ccccc21 | – | active: 0.651 µM
Cc1ccc(Nc2nnc(SCC(=O)c3c(N)n(C4CC4)c(=O)[nH]c3=O)s2)cc1C | – | inconclusive [inhibitor, partial curve]
COc1ccccc1OCCCOc1ccc(C)cc1Br | – | inconclusive [inhibitor, single point]
CCn1c(SCC(=O)Nc2nncs2)nnc1-c1ccco1 | inactive: 0.161% | –
CC1(C)Cc2ccccc2C(/C(=N\Nc2cccc(Cl)c2)C(N)=O)=N1 | – | inconclusive [inhibitor, single point]
Cc1cc(CN2CCN(CC(=O)Nc3cc(Cl)ccc3-n3cncn3)CC2)no1 | inactive: -22.5% | –
COc1ccc(S(=O)(=O)N2CCC(n3cnc4cc(C(F)(F)F)ccc43)CC2)cc1 | inactive: -13.1% | –
Cc1cc(C)c(NC(=O)Cn2c(=O)n(Cc3ccc4c(c3)OCO4)c(=O)c3ccccc32)c(C)c1 | – | inconclusive [inhibitor, single point]
Cc1onc(-c2c(F)cccc2Cl)c1C(=O)NC(C)c1ccccc1 (configuration not stated) | – | inconclusive [inhibitor, single point]

Compound | activity change, negative = growth inhibition | Potency
COc1ccc(S(=O)(=O)N2CCN(CCOc3ccc(Br)cc3)CC2)cc1OC | – | active: 14.6 µM
O=C(NCCc1ccccc1)C(c1ccccc1F)N(C(=O)c1csnn1)C1CC1 (configuration not stated) | – | inconclusive [inhibitor, single point]
NC(=O)CSc1nnc(-c2cccnc2)n1CCc1ccccc1 | inactive: -13.9% | –
O=C1ON=C(c2ccccc2)/C1=C/c1ccc(OS(=O)(=O)c2ccccc2)cc1 | – | inconclusive [inhibitor, single point]
CN1CCN(CC(O)(c2ccc(Cl)cc2)c2ccc(Cl)cc2)CC1 | – | active: 20.6 µM
CC(C)Oc1ccc(CC(=O)NNC(=S)Nc2ccccc2)cc1 | – | inconclusive [inhibitor, single point]
Nc1c(C(=O)NCCN2CCOCC2)c2nc3ccccc3nc2n1-c1ccc2c(c1)OCO2 | – | inconclusive [inhibitor, partial curve, poor fit]
COc1ccc(CC(=O)Nc2ccc(OC(C)=O)cc2C(=O)O)cc1 | inactive: 8.85% | –
CCC1=Nc2cc(C(=O)NCc3ccccc3Cl)ccc2Sc2ccc(C)cc21 | – | active: 3.26 µM
CCOC(=O)c1ccc(NC(=O)Cn2c(-c3nonc3N)nc3ccccc32)cc1 | – | inconclusive [inhibitor, single point]
Cc1c(Cl)cccc1NC(=O)CSc1nc(=O)n(CCCN2CCOCC2)c2c1CCCC2 | – | inconclusive [inhibitor, single point]
COCCn1c(SCC(=O)NC(=O)Cc2ccccc2)nc2ccccc2c1=O | inactive: -2.11% | –
O=C(Cn1cnc2ccccc2c1=O)OCCCCN1C(=O)c2ccccc2C1=O | – | inconclusive [inhibitor, single point]
Cc1ccccc1NS(=O)(=O)c1ccc(C(=O)N2CCC2)cc1 | – | inconclusive [inhibitor, single point]
CCOC(=O)c1c(-c2ccccc2)nc2c(C)cccn12 | – | active: 16.4 µM
O=C(Cn1nc(-c2ccccc2)c2ccccc2c1=O)NCCO | inactive: 3.11% | –
O=c1c2c(O)cc(O)cc2oc2c(O)ccc(O[C@H]3O[C@@H](CO)[C@H](O)[C@@H](O)[C@@H]3O)c12 | inactive: -1.37% | –
OC(CNCCc1ccc(Cl)cc1Cl)COc1ccccc1 (configuration not stated) | – | inconclusive [inhibitor, single point]
c1ccc(CCNCCCOc2cccc3ccccc23)cc1 | – | inconclusive [inhibitor, single point]
CCn1c(Cc2ccccc2)nnc1SCc1nc2ccccc2c(=O)[nH]1 | – | inconclusive [inhibitor, single point]
Cc1ccc(Cl)c(NC(=O)COC(=O)c2cc[n+]([O-])cc2)c1Cl | inactive: -2.29% | –
COc1cccc(Cn2c(=O)cnc3cncnc32)c1 | – | active: 0.731 µM
C/C(=N\NC(=O)Cc1ccccc1Cl)c1cccnc1 | inactive: 15.8% | –
CC(C)(C)N(Cc1ccccc1)C(=O)COC(=O)CSc1ccc([N+](=O)[O-])cc1 | – | inconclusive [inhibitor, single point]
